Assay results taken from PubChem BioAssay AID1508623 (National Center for Advancing Translational Sciences (NCATS), 2021).
“And” between values parts separate entries of the source, which are not always exact repeats. Equal entries are not always repeated. About 450 (0.94%) of roughly 48,000 compounds were called active. Inconclusive results, whose numbers are uncertain, are shown with a selection of clear calls. Calls follow the shape of the dose curve; as a rule, active = well fitted inhibition curve with a large enough effect; inconclusive = small, poorly fitted or top-dose-only effect; inactive = no such curve, though single readings can be large or run the other way. Potencies beside an inconclusive call are fits to weak or partial responses and may not hold up.

assay: Primary qHTS for Identification of Small Molecule Inhibitors of Huntingtin Promoter Activity; settings: HEK293 HTT promoter firefly luciferase reporter (activity 0% = vehicle and -100% = no light), 24 h; series mostly up to 57.5 µM; activity change, negative = inhibition: at the top concentration; also: nearly all actives have a fitted effect of over 50% in size
Outline: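 HEK293 Fluc reporter, 2,500 cells/well, 24 h pre-culture; cpds up to 57.5 uM final, 24 h 37 degrees C; Dual-Glo, 10 min RT; normalized vehicle = 0%, zero RLU = -100%.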
Potency is read from the fitted curve at half-maximal effect; tags tell the direction and shape of the fitted curve.

Structure (SMILES)	Potency	activity change, negative = inhibition
Cc1cc(C)cc(-n2c(/C=C/c3cccc(F)c3)nc3ccccc3c2=O)c1	inconclusive: 25.1 µM [inhibitor, single point]	
COc1ccc(NC(=O)CN2C(=O)C(C)N=C(c3ccccc3F)c3cc(Cl)ccc32)c(OC)c1 (stereo unspecified)	inconclusive: 12.6 µM [inhibitor, partial curve]	
O=c1[nH]c2ccccc2n1C1CCN(CCCC(c2ccc(F)cc2)c2ccc(F)cc2)CC1	inconclusive: 3.16 µM [inhibitor, single point]	
CC(=O)[O][Hg][c]1ccccc1	inconclusive: 39.8 µM [inhibitor, single point]	
COc1ccc(OC)c(NC(=O)Cn2cc(C(=O)c3ccccc3F)c3ccccc32)c1	inconclusive: 17.8 µM [inhibitor, partial curve, poor fit]	
CCCCCCCCCCCC[N+](C)(C)CCOc1ccccc1	inconclusive: 28.2 µM [inhibitor, partial curve, poor fit]	
CC(C)N[C@@H]1CCn2c(=O)[nH]c3cccc(c32)[C@@H]1O	inconclusive: 4.32 µM [inhibitor, full curve]	
Cc1ccc([N+](=O)[O-])[c]2c1[O][Hg]2	inconclusive: 39.8 µM [inhibitor, single point]	
O=C(COc1ccc(Cl)cc1)Nc1ccc(Cl)cc1C(=O)c1ccccc1		inactive: 2.09%
Cc1c(C(c2ccc(F)cc2)c2c(O)c3ccccc3oc2=O)c(=O)n(-c2ccccc2)n1C (stereo unspecified)		inactive: -18.5%
O=c1[nH]c2ccc(Cl)cc2c(N[C@@H]2CN3CCC2CC3)c1-c1nc2ccccc2[nH]1	inconclusive: 0.109 µM [inhibitor, full curve]	
O=C(Nc1ccon1)c1cccn(Cc2cccc(Cl)c2)c1=O	inconclusive: 28.2 µM [inhibitor, single point]	
C[C@H]1CCCC=CC2C[C@H](O)C[C@@H]2[C@H](O)C=CC(=O)O1 (stereo partly specified)	inconclusive: 0.0306 µM [inhibitor, full curve]	
Cc1oc(-c2ccc(Cl)cc2)nc1CN1C(=O)CN=C(c2ccccc2)c2ccccc21	inconclusive: 22.4 µM [inhibitor, partial curve, poor fit]	
Cc1cccc(NC(=O)Cn2cc(C(=O)c3ccccc3)c3ccccc32)c1C	inconclusive: 8.91 µM [inhibitor, partial curve, poor fit]	
CN1[C@H]2CC(O)C[C@H]1[C@H]1O[C@H]12 (stereo partly specified)	inconclusive: 27.3 µM [inhibitor, single point]	
CCN(CC)C(=O)c1ccc(C2=CC3(CCNCC3)Oc3cccc(O)c32)cc1		inactive: 8.06%
C=C[C@@H]1CN2CCC1C[C@H]2[C@H](O)c1ccnc2ccccc12 (stereo partly specified)		inactive: -17.8%
Cc1ccccc1Cn1cccc(C(=O)Nc2nc3ccccc3s2)c1=O	active: 0.316 µM	
O=C1CN=C(c2ccccc2Cl)c2cc(Cl)ccc2N1Cc1cccc(Cl)c1	inconclusive: 35.5 µM [inhibitor, single point]	
CC(O)=C(C#N)C(=O)Nc1cc(Br)ccc1Br		inactive: -3.67%

Structure (SMILES)	Potency	activity change, negative = inhibition
Cc1ccccc1-n1nc(C)c2c1NC(=O)CSC2c1ccc(N(C)C)cc1 (stereo unspecified)	inconclusive: 11.2 µM [inhibitor, partial curve]	
Cc1ccc(CN2C(=O)c3ccccc3Sc3ccc(C(=O)N4CCC5(CC4)OCCO5)cc32)cc1	inconclusive: 25.1 µM [inhibitor, single point]	
Nc1c(C(=O)Nc2ccc(Cl)c(C(F)(F)F)c2)sc2nc3c(cc12)N1CCC3CC1	inconclusive: 3.55 µM [inhibitor, partial curve, poor fit]	
COc1ccc(-n2c(/C=C\c3ccccc3F)nc3ccccc3c2=O)cc1OC	inconclusive: 31.6 µM [inhibitor, partial curve, poor fit]	
O=C(CBr)Nc1ccc(Cl)cc1C(=O)c1ccccc1F		inactive: -4.82%
COc1cccc(NC(=O)Cn2cc(C(=O)c3ccccc3)c3ccccc32)c1	inconclusive: 35.5 µM [inhibitor, single point]	
CCCOc1ccc(C2SCC(=O)Nc3c2c(C)nn3-c2cccc(C)c2)cc1OC (stereo unspecified)	inconclusive: 11.2 µM [inhibitor, partial curve]	
C[C@]12C/C(=C/O)C(=O)C[C@@H]1CC[C@@H]1[C@@H]2CC[C@@]2(C)[C@H]1CC[C@]2(C)O		inactive: -8.38%
Cc1ccc(NC(=O)Cn2cc(C(=O)c3ccccc3)c3ccccc32)cc1	inconclusive: 39.8 µM [inhibitor, single point]	
Cc1ccc(Cl)cc1NC(=O)N(Cc1ccc2c(c1)OCO2)C1CCN(Cc2ccccc2)CC1	inconclusive: 39.8 µM [inhibitor, single point]	
CCOc1ccc(CN(CCc2ccc3c(c2)OCO3)Cc2cccc(OC)c2)cc1		inactive: -29.1%
COc1ccc(C)cc1NC(=O)N(Cc1ccc2c(c1)OCO2)C1CCN(Cc2ccccc2)CC1	inconclusive: 28.2 µM [inhibitor, partial curve, poor fit]	
Cc1cccc(-c2nc(CN3C(=O)CN=C(c4ccccc4)c4ccccc43)c(C)o2)c1	inconclusive: 39.8 µM [inhibitor, single point]	
CCCCCCCCCC(CC)c1ccc(S(=O)(=O)O)cc1 (stereo unspecified)		inactive: 12.4% [at 116 µM]
N#C[C@H](O[C@@H]1O[C@H](CO[C@@H]2O[C@H](CO)[C@H](O)[C@H](O)[C@H]2O)[C@H](O)[C@H](O)[C@H]1O)c1ccccc1	inconclusive: 24.3 µM [inhibitor, partial curve]	
CN(C)[C@@H]1C(=O)C(C(N)=O)=C(O)[C@@]2(O)C(=O)C3=C(O)c4c(O)cccc4[C@@](C)(O)[C@H]3[C@H](O)[C@@H]12		inactive: -1.26%
CC(C)(C)CC(C)(C)c1ccc(O)cc1	inactive	
O=P1(N(CCCl)CCCl)NCCCO1 (stereo unspecified)	inactive	
CSCC[C@@H](NC(=O)[C@@H](Cc1ccccc1)NC(=O)CNC(=O)CNC(=O)[C@@H](N)Cc1ccc(O)cc1)C(=O)O		inactive: 6.97%
Cc1cccc(-n2nc(C)c3c2NC(=O)CSC3c2ccccc2Cl)c1 (stereo unspecified)	inconclusive: 44.7 µM [inhibitor, partial curve, poor fit]	
Cc1cccc(CN2C(=O)CN=C(c3ccccc3)c3ccccc32)c1	inconclusive: 22.4 µM [inhibitor, partial curve]	

Structure (SMILES)	Potency	activity change, negative = inhibition
COc1ccc(-n2c(/C=C/c3cccc(F)c3)nc3ccccc3c2=O)cc1Cl	inconclusive: 39.8 µM [inhibitor, single point]	
Oc1cc(Cl)ccc1Oc1ccc(Cl)cc1Cl	inconclusive: 7.08 µM [inhibitor, full curve, poor fit]	
C[C@](O)(COc1ccc(C#N)cc1)C(=O)Nc1ccc(C#N)c(C(F)(F)F)c1	inconclusive: 27.3 µM [inhibitor, partial curve, poor fit]	
COc1ccc(NC(=O)CCc2nc(C3=CCN(Cc4cccc(Cl)c4)CC3)no2)c(OC)c1	inconclusive: 25.1 µM [inhibitor, partial curve, poor fit]	
COP(=S)(OC)SCN1C(=O)c2ccccc2C1=O		inactive: -7.88%
COc1cccc(C2SCC(=O)Nc3c2c(C)nn3-c2ccc(C)c(Cl)c2)c1OC (stereo unspecified)	inconclusive: 11.2 µM [inhibitor, partial curve]	
Cc1c(C(c2ccc(Br)cc2)c2c(O)c3ccccc3oc2=O)c(=O)n(-c2ccccc2)n1C (stereo unspecified)	inconclusive: 39.8 µM [inhibitor, single point]	
COC1=CC(C)=C[C@@H](C)[C@@H](O)[C@@H](C)CC(C)=CC=C[C@H](OC)[C@H]([C@@H](C)[C@@H](O)[C@H](C)[C@@]2(O)C[C@@H](O)[C@H](C)[C@@H](C(C)C)O2)OC1=O	inconclusive: 0.0385 µM [inhibitor, full curve]	
Cc1ccc(Cn2cccc(C(=O)Nc3cc(C)on3)c2=O)cc1	inconclusive: 11.2 µM [inhibitor, partial curve]	
Fc1ccc(C(OCCN2CCN(CCCc3ccccc3)CC2)c2ccc(F)cc2)cc1	inconclusive: 38.5 µM [inhibitor, single point] and inconclusive: 8.91 µM [inhibitor, partial curve, poor fit]	
C[C@]12CC[C@H]3[C@@H](CC[C@@]45O[C@H]4C(O)=C(C#N)C[C@]35C)[C@H]1CC[C@H]2O		inactive: 9.96%
C=C(C)[C@H]1Cc2c(ccc3c2O[C@@H]2COc4cc(OC)c(OC)cc4[C@@H]2C3=O)O1	inconclusive: 0.109 µM [inhibitor, full curve]	
Cc1ccccc1-n1c(/C=C/c2c(C)[nH]c3ccccc23)nc2ccccc2c1=O	inconclusive: 15.8 µM [inhibitor, partial curve, poor fit]	
CC(C)N(CCNC(=O)CN1CCCC1=O)C(C)C		inactive: -1.29%
Cc1ccccc1-n1nc(C)c2c1NC(=O)CSC2c1ccc(Cl)cc1 (stereo unspecified)	inconclusive: 12.6 µM [inhibitor, partial curve]	
Cc1ccc(-c2nc(CN3C(=O)CN=C(c4ccccc4)c4ccccc43)c(C)o2)cc1	inconclusive: 28.2 µM [inhibitor, partial curve, poor fit]	
C[C@H](CN1CCOCC1)C(C(=O)N1CCCC1)(c1ccccc1)c1ccccc1	inconclusive: 56.2 µM [inhibitor, single point]	
COc1cccc(NC(=O)c2cccn(Cc3ccccc3C)c2=O)c1	inconclusive: 28.2 µM [inhibitor, partial curve, poor fit]	
Cc1ccc(Cn2cccc(C(=O)Nc3ccc4c(c3)OCCO4)c2=O)cc1	inconclusive: 15.8 µM [inhibitor, partial curve, poor fit]	
